Laboratory results published in PubChem BioAssay AID1030 (National Center for Advancing Translational Sciences (NCATS), 2008).
The whole screen tested about 220,000 compounds, of which about 16,000 (7.3%) were called active. This list was built around the results that the source calls inconclusive (neither active nor inactive); the mix of calls is not that of the screen. Calls come from the whole dose curve; as a rule, active = well fitted inhibition curve with a large enough effect (not every such curve was filed as active); inconclusive = small, poorly fitted or top-dose-only effect, or another doubt; inactive = no such curve, though single readings can be large or run the other way. A potency beside an inconclusive call is a rough fit, not a confirmed value.

molecular target: Aldehyde dehydrogenase 1A1 (Homo sapiens) (UniProt P00352); experiment: qHTS Assay for Inhibitors of Aldehyde Dehydrogenase 1 (ALDH1A1); settings: Purified ALDH1A1, NADH fluorescence, propionaldehyde substrate; series mostly up to 75.3 µM;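 for activity, negative = inhibition: plate controls were no enzyme wells and a reference inhibitor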
UniProt P00352, sequence (P00352 whole entry, looked up): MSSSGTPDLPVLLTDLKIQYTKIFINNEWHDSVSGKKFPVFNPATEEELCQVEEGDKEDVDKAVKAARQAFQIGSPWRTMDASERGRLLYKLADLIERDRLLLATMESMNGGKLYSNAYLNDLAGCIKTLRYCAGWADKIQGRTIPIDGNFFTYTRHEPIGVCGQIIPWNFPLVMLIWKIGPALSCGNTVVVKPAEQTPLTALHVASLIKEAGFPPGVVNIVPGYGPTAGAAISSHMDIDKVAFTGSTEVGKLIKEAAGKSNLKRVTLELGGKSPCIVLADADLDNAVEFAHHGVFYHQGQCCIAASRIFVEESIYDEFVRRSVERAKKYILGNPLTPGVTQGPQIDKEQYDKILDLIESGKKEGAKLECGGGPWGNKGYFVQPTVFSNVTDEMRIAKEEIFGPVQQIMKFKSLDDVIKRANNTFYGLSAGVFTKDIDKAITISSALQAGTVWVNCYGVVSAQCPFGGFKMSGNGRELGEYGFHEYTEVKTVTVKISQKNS
Potency is the fitted concentration of half-maximal effect; tags give direction and shape of the fitted curve.

Potency, inconclusive:
Oc1ccc(/C(Cc2ccc3ccccc3n2)=N\Nc2ccccc2)c(O)c1 28.2 µM [inhibitor, single point]
O=C(NC(=S)N(Cc1ccccc1)c1ccccn1)C1CCCCC1 17.8 µM [inhibitor, partial curve]
COc1cc2c(cc1OC)CN(Cc1cc(=O)oc3c(C)c(C)ccc13)CC2 39.8 µM [inhibitor, single point]
COc1ccc(Cc2nnc(NC(=O)c3ccco3)s2)cc1 2 µM [inhibitor, partial curve]
c1ccc(-c2nc(N3CCNCC3)nc3ccccc23)cc1 20 µM [inhibitor, partial curve]
CC1=NOC(=O)/C1=C\c1ccc(-c2ccc(Br)cc2C(=O)O)o1 3.55 µM [inhibitor, full curve]
Cc1ccc(N(C(=O)c2cc3ccccc3oc2=O)C2C=CS(=O)(=O)C2)cc1 (stereo unspecified) 39.8 µM [inhibitor, single point]
COc1ccc(/C=C/C(=O)NC(=S)N2CCSCC2)cc1 39.8 µM [inhibitor, single point]
CC(c1nnc(SCC(=O)c2c(N)n(C)c(=O)n(C)c2=O)n1-c1ccc(Cl)cc1)N(C)C (stereo unspecified) 31.6 µM [inhibitor, single point]
CCN(CC)CCCN1C(=O)c2oc3ccccc3c(=O)c2C1c1cccs1 (stereo unspecified) 39.8 µM [inhibitor, single point]
O=C(C1CCCN(S(=O)(=O)c2cccc3nonc23)C1)N1CCC(Cc2ccccc2)CC1 (stereo unspecified) 12.6 µM [inhibitor, partial curve]
O=C(c1nc2nc(-c3cccs3)cc(C(F)(F)F)n2n1)N1CCN(Cc2ccccc2)CC1 28.2 µM [inhibitor, partial curve]
COc1ccc(S(=O)(=O)N2CCCCC2C(=O)O)cc1 (stereo unspecified) 39.8 µM [inhibitor, single point]
Nc1cccc2c1C(=O)N(C(=O)/C=C/c1cccc(F)c1)C2=O 39.8 µM [inhibitor, single point]
CCCCC#CC1C=CC(Oc2ccc(C(=O)OC)cc2)C(COC(=O)OCC)O1 (stereo unspecified) 3.55 µM [inhibitor, partial curve]
COc1cccc(N2CCN(C3CC(=O)N(c4ccc(C)c(Cl)c4)C3=O)CC2)c1 (stereo unspecified) 35.5 µM [inhibitor, single point]
Cc1noc(C)c1COC(=O)CCCc1nc2ccccc2s1 39.8 µM [inhibitor, single point]
COc1cccc(OC)c1C(=O)NC(=S)Nc1cccc(NC(=O)c2ccco2)c1 31.6 µM [inhibitor, single point]
COC(=O)/C=C/C(=O)N1CCN(c2ccccc2)CC1 39.8 µM [inhibitor, single point]
O=C(Nc1sc2c(c1C(=O)O)CCC2)c1cccs1 20 µM [inhibitor, partial curve]
COCCn1c(SCC(=O)Nc2ccccc2C)nc2c(oc3ccccc32)c1=O 10 µM [inhibitor, partial curve, poor fit]
C=CCn1c2ccccc2n2nc(C)c(=O)nc12 28.2 µM [inhibitor, partial curve]
COC(=O)c1cc(NC(=O)c2ccccc2)c(=O)oc1C/C=N\OCc1ccc(Cl)cc1Cl 22.4 µM [inhibitor, partial curve]
CC[C@@H]1C(c2ccccc2)=NN(c2ccc(Br)cc2)[C@H]1C(=O)N1CCOC1=O 39.8 µM [inhibitor, single point]
CC1CCC2C(=O)N(c3ccc(C(=O)Oc4cccc5cccnc45)cc3)C(=O)C2C1 (stereo unspecified) 17.8 µM [inhibitor, single point]
COC(=O)C(C)Sc1ccc2nnc(CCNS(=O)(=O)c3ccc(C)cc3)n2n1 (stereo unspecified) 39.8 µM [inhibitor, single point]
CCn1c(SCC(=O)O)nnc1-c1cc2c(C)nn(-c3ccccc3)c2s1 10 µM [inhibitor, partial curve]
O=C(CN1CCN(c2ccc(F)cc2)CC1)Nc1cc(C(F)(F)F)ccc1Cl 10 µM [inhibitor, single point]
Cc1cc(SCC(N)=O)nc(SCC(=O)c2ccccc2)n1 35.5 µM [inhibitor, single point]
O=C(CCC1CCCC1)N1CCC(N2CCN(c3ccccc3)CC2)CC1 39.8 µM [inhibitor, single point]
CCOC(=O)C1(CC2CCCCO2)CCN(C(=O)Nc2ccc(SC)cc2)CC1 (stereo unspecified) 37.7 µM [inhibitor, single point]
O=C(NC1CCCCCC1)c1nc2ncccn2n1 28.2 µM [inhibitor, partial curve]
CCCc1nc2ccccc2c(C(=O)OCC(=O)NCc2ccc3c(c2)OCO3)c1CC 14.1 µM [inhibitor, partial curve]
COc1ccc(C2C=C(c3ccccc3)Nc3nnnn32)cc1 (stereo unspecified) 39.8 µM [inhibitor, single point]
COc1ccc(N2Cc3ccccc3C2=NC(=O)c2cncc(Br)c2)cc1 35.5 µM [inhibitor, single point]
CCC(=O)N1CCN(c2ccccc2NC(=O)COc2ccccc2Cl)CC1 22.4 µM [inhibitor, partial curve]
COc1ccc(-n2c(COc3cccc4cccnc34)nnc2SCC(=O)O)cc1 44.7 µM [inhibitor, single point]
Cc1n[nH]c(C)c1S(=O)(=O)N1CCCC(C(=O)N2CCN(c3ccc(Cl)cc3)CC2)C1 (stereo unspecified) 22.4 µM [inhibitor, partial curve]
Cc1cc(C)n(CC(=O)NN)n1 2.24 µM [inhibitor, partial curve]
COc1ccc(-c2nc3cnc(Nc4ccccc4)nc3n(C[C@H]3CCCO3)c2=O)cc1 39.8 µM [inhibitor, single point]

Potency, active:
O=C(NCc1ccccc1F)C1CCN(C(=O)c2sccc2-n2cccc2)CC1 2.51 µM
O=C(c1ccco1)N1CCN(C(c2ccccc2)c2nnnn2Cc2cccs2)CC1 (stereo unspecified) 2.24 µM
CC(=O)NNC(=S)NC(=O)c1ccccc1 17.8 µM
Cc1nn2c(NCCOCCO)c3c(nc2c1-c1ccccc1)CCCC3 31.6 µM
O=C1CC(N2CCOCC2)C(=O)N1c1cc(Cl)cc(Cl)c1 (stereo unspecified) 3.16 µM
Fc1ccc(N2CCN(Cc3cn[nH]c3-c3ccccc3)CC2)cc1 14.1 µM
CCOC(=O)N1CCN(CCC(=O)c2ccc(OC)cc2)CC1 0.708 µM

Potency, inactive:
O=C(/C=C\c1ccc2c(c1)OCO2)Nc1c2c(nn1-c1ccc(Cl)cc1)CSC2
CC(C)n1nc(C(=O)Nc2nnc(C3CC3)s2)c2ccccc2c1=O
Cc1cc(F)ccc1S(=O)(=O)Nc1ncnc2sc3c(c12)CCC3
COCCn1nnnc1C(c1ccc(O)c(OC)c1)N1CCc2ccccc2C1 (stereo unspecified)
C/C(=N/NC(=O)CNC(=O)c1cccc(F)c1)c1ccc2c(c1)CCCC2
CCC(=O)NC(c1ccc(OC)cc1)c1cc(Cl)c2cccnc2c1O (stereo unspecified)
O=C(COC(=O)CCc1ccc(S(=O)(=O)N2CCOCC2)cc1)NCc1ccccc1
CC(C)OCCCn1c(=NC(=O)c2ccncc2)c(C#N)cc2c(=O)n3ccccc3nc21
COC(=O)C1=C(C)Nc2nnnn2C1c1cccnc1 (stereo unspecified)
Oc1c(C(c2ccccn2)N2CCOCC2)ccc2cccnc12 (stereo unspecified)
CCOC(=O)CN1C(=O)C(O)=C(C(C)=O)C1c1ccc(F)cc1 (stereo unspecified)
CC1CC(C)CN(C(=O)/C(=C\c2ccccc2)c2ccccc2)C1 (stereo unspecified)
COc1ccc(Nc2nc3ccc(OC)cc3s2)cc1
COc1ccc(NC(=S)NC2CCCCCC2)c(OC)c1
COc1ccc(C(=O)N2CCN(S(=O)(=O)N3CCOCC3)CC2)cc1OC
COc1ccccc1CN(C)CC(=O)Nc1ccc(Cl)cc1F
O=C(NCCN1CCOCC1)c1ccc(CSc2nc3ccncc3n2Cc2ccc(F)cc2)cc1
O=C(CN(Cc1ccco1)S(=O)(=O)c1ccccc1)N/N=C/c1ccccc1C(=O)O
O=C(CSc1ccc(Cl)cc1)N1CCN(c2ccc(Cl)cc2[N+](=O)[O-])CC1
COc1ccc(CC(=O)Nc2ccccc2C(=O)N2CCOCC2)cc1
COc1cc(C)nc(N2CCCC(C(=O)Nc3cccc(Cl)c3C)C2)n1 (stereo unspecified)
N=C(N)SCc1cn(-c2ccccc2)nc1-c1ccc(Br)cc1
O=C(Cn1nnc2ccccc2c1=O)Nc1cccc(S(=O)(=O)N2CCOCC2)c1
COC(=O)c1ccc(=O)n(CC(=O)c2ccc(Cl)cc2)c1
CSc1ccccc1C(=O)Nc1ccc2c(c1)OCO2
C=C1CCC(=O)C(C)CCC2C1CC2(C)C (stereo unspecified)
O=C(Nc1ccnc(-c2cccnc2)n1)c1cccc(Cl)c1Cl
O=C1C(Cc2cccc([N+](=O)[O-])c2)SC(=Nc2ccccc2)N1c1ccccc1 (stereo unspecified)

activity, negative = inhibition, inactive:
C[C@H]1Cc2c(-c3ccccc3)nc3c(c2CO1)CN(C(=O)Cc1cccs1)CC3 5.46% [at 13.5 µM]
